Measurements reported in PubChem BioAssay AID1240 (Sanford-Burnham Center for Chemical Genomics, 2008).
The whole screen tested about 50,000 compounds, of which about 800 (1.6%) showed an effect of 50% or more. Some of the results follow.

Target: Bcl-2-like protein 10 (Homo sapiens) (UniProt Q9HD36)
Experiment: Phenotype converters, Bcl-B/TR3 peptide binding displacement, primary biochemical FP (AID 1240);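 also: 0% = Bcl-B with tracer peptide and DMSO and 100% = tracer peptide lacking Bcl-B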
Details: GST-Bcl-B / FITC-TR3 peptide fluorescence polarization; stronger effect = higher value; compound at 3.75 mg/L

Chain of UniProt Q9HD36 (Q9HD36 whole entry, looked up): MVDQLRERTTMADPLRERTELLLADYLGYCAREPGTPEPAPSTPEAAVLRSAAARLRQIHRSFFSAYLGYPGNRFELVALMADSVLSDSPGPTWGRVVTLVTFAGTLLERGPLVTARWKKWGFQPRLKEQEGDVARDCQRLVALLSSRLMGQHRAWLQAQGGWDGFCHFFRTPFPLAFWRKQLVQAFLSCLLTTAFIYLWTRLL

| SMILES | displacement |
| --- | --- |
| Cc1ccc(C(=O)NCCNc2ccc([N+](=O)[O-])cc2Cl)cc1 | 1.9% |
| Cc1c(/C=C2\SC(=S)NC2=O)c(=O)n(-c2ccccc2)n1C | 22.8% |
| Cc1cccc(N2C(=O)/C(=C/c3ccco3)SC2=S)c1C | 1.9% |
| CCOc1cc(/C=C2\SC(=S)N(CCS(=O)(=O)O)C2=O)ccc1O | -60.3% |
| CCOC(=O)c1c(-c2ccc(OC)cc2)csc1NC(=O)C(C)C | -1% |
| Cc1ccc(C(=O)Nc2sc3c(c2C#N)CCCCC3)o1 | 3.6% |
| COc1ccc(C(O)(CNCc2ccccc2)c2ccc(Br)cc2)cc1 (centres undefined) | 13.2% |
| COc1ccccc1C(=O)Nc1cccc(C(F)(F)F)c1 | 19.7% |
| Cc1nn(-c2ccccc2)c2c1C(c1ccc(O)cc1)C(C#N)=C(N)O2 (centres undefined) | 7.2% |
| O=C(NC(Nc1cccc([N+](=O)[O-])c1)C(Cl)(Cl)Cl)c1cccc(I)c1 (centres undefined) | -9.6% |
| O=C1CC(Sc2ncn[nH]2)C(=O)N1c1cc(Cl)ccc1Cl (centres undefined) | 16.7% |
| C=CCn1c(SCC(=O)c2ccc(Br)cc2)nc2sc3c(c2c1=O)CCC3 | -3.1% |
| COc1ccccc1N1CCN(C(=O)COc2ccc(Br)c(C)c2)CC1 | -6.5% |
| O=[N+]([O-])c1ccc(S(=O)(=O)Nc2cccc3ccccc23)cc1 | 0.9% |
| CCCCOc1ccc(NC(=O)Nc2cc(F)c(F)cc2Cl)cc1 | -14.3% |
| O=C(COc1ccc(Br)cc1)Nc1cccc([N+](=O)[O-])c1 | 4.5% |
| Cc1csc(N(CCC(N)=O)CCC(N)=O)n1 | 2.1% |
| CC1=CC(C)(C)Nc2ccc(OC(=O)C(C)N3C(=O)c4ccccc4C3=O)cc21 (centres undefined) | 6.1% |
| Cc1ccc2c(c1)NC(C)(C)c1sn(-c3ccc(Cl)c(F)c3)c(=S)c1-2 | 8.7% |
| CC12c3ccccc3C(c3ccccc31)C1C(=O)N(c3cccc([N+](=O)[O-])c3)C(=O)C12 (centres undefined) | 41.8% |
| O=C(NCc1cccnc1)c1cnn2c1NC(c1ccc(F)cc1)CC2C(F)(F)F (centres undefined) | 5.1% |
| O=C1CC(c2ccccc2)CC(O)=C1C=Nc1ccccc1-c1ccccc1 (centres undefined) | -32.5% |
| Cc1ccc(NC(=O)C(=O)N/N=C/c2cccs2)cc1 | 10.6% |

| SMILES | displacement |
| --- | --- |
| COC(=O)CCN1C(=O)/C(=C/c2ccc(OCc3ccc(Cl)cc3)c(OC)c2)SC1=S | 24.7% |
| C=CCNC1=C(Cl)C(=O)c2ccccc2C1=O | 8.2% |
| CCOC(=O)C(=CNc1cccc(C(=O)O)c1)C(=O)OCC | 7.4% |
| O=C(Nc1cccc(O)c1)c1cccnc1 | -5.9% |
| O=C(CN1CC[n+]2c(-c3cccs3)csc21)c1ccccc1 | -8.6% |
| COc1ccc(OC)c(N2C(=O)CCC2=O)c1 | 8.6% |
| COc1ccccc1N(CC(=O)Nc1ccc(Oc2ccccc2)cc1)S(=O)(=O)c1ccccc1 | -6.2% |
| OC1CC(c2ccccc2)NC2(CCCCC2)C1 (centres undefined) | 5% |
| CCOc1ccc(C(=O)Nc2ccc(OC(F)(F)F)cc2)cc1 | -4.5% |
| O=C(COc1ccc(Br)cc1)Nc1ccc([N+](=O)[O-])cc1 | -0.4% |
| CC(=O)c1ccc(NC(=O)c2ccc3c(c2)C(=O)N(c2ccc(C)c(C)c2)C3=O)cc1 | 8.9% |
| O=C(Nc1cc(C(F)(F)F)ccc1Cl)C1CC(=O)N(c2ccc(Br)cc2)C1 (centres undefined) | 12.1% |
| O=c1sc2ccccc2c(N2CCN(c3ccccc3)CC2)c1[N+](=O)[O-] | -11.1% |
| Cc1c(NC(=O)/C=C/c2cn(-c3ccccc3)nc2-c2ccccc2)c(=O)n(-c2ccccc2)n1C | 70% |
| CC(C)(C)C1CCc2c(sc(NC(=O)c3cccs3)c2C(N)=O)C1 (centres undefined) | -9.9% |
| CCOc1ccc(C(=O)COC(=O)c2ccc(C)cc2)cc1 | 2.4% |
| CCCCCC(=O)c1c(C)nn(C)c1C | 10.7% |
| CCOC(=O)C1=C(C)N=c2s/c(=C\c3sccc3C)c(=O)n2C1c1cccs1 (centres undefined) | 12.4% |
| C=CCOC(=O)C1=C(C)NC(C)=C(C(=O)OCC=C)C1c1ccc(C)cc1 | 7.3% |
| COc1ccc(NC(=O)Nc2nnc(-c3ccc(C)cc3)s2)cc1 | 13.2% |
| O=C(NCCCO)C(=O)NCCc1ccc(Cl)cc1 | 8.8% |
| O=C(CSc1nnnn1-c1ccccc1)Nc1cc2c(cc1Br)OCCO2 | 2.5% |
| CCOc1ccccc1NC(=O)c1ccc(OC)cc1OC | 10.5% |

| SMILES | displacement |
| --- | --- |
| Cc1cc([N+](=O)[O-])ccc1NC(=O)COc1ccccc1C | 2.4% |
| CC1=C(C(=O)Nc2cccc(C)c2)C(c2ccc(Br)cc2)NC(=S)N1 (centres undefined) | 3.2% |
| CCCc1c(C)c2c(OCC(=O)O)cc(OCC(=O)O)cc2oc1=O | 18.9% |
| COCCOC(=O)c1c(C)oc2ccc(OCC(=O)C(C)(C)C)cc12 | 9% |
| COC(=O)c1c(NC(=O)c2cccc(F)c2)sc2c1CCC(C)C2 (centres undefined) | 4.5% |
| Cn1nccc1C(=O)Nc1nc2ccccc2s1 | -3.1% |
| CC(C)(C)c1ccc(Oc2coc3c(CN4CCOCC4)c(O)ccc3c2=O)cc1 | 9% |
| N#C/C(=C/c1ccc(-c2ccc(Cl)cc2)o1)C(=O)O | -0.8% |
| CCN(CC)CCCNC(=O)c1nn2c(c1Cl)NC(c1ccc(C)cc1)CC2C(F)(F)F (centres undefined) | 0.5% |
| CCOC(=O)CN1C(=O)/C(=C2\SC(=O)NC2=O)c2ccccc21 | -4.7% |
| O=C1CC(C(F)(F)C(F)(F)C(F)(F)C(F)(F)F)=Nc2ccccc2N1 | -24.2% |
| COc1ccc(NC(=O)c2ccc(Nc3nnc(C)c4ccccc34)cc2)cc1 | -12.4% |
| CC(=O)NCCOc1ccc(C(=O)O)cc1 | 4.9% |
| O=C1C(=O)N(CCCn2ccnc2)C(c2cccc([N+](=O)[O-])c2)/C1=C(\O)c1ccc(Cl)cc1 (centres undefined) | 10.7% |
| COc1cc(CN2CCN(Cc3ccc(C)cc3C)CC2)cc(OC)c1OC | -0.9% |
| Cn1c(=O)n(C)c2cc(/C=C3/C(=O)NN(c4ccccc4)C3=O)ccc21 | 10.6% |
| COc1ccc(NC2=C(Cl)C(=O)N(c3ccccc3Cl)C2=O)c(OC)c1 | 8.7% |
| C(=Nc1ccc2c(c1)ncn2-c1ccccc1)c1c[nH]c2ccccc12 | 11.4% |
| CC1=NNC(=O)C1CC(=O)N/N=C/c1cccc(OCc2ccccc2)c1 (centres undefined) | -8.1% |
| O=C(CSc1nc2ccccc2[nH]1)NCc1ccccc1 | -11.6% |
| CCN(CC)C(=O)CN(c1ccc(C)cc1)S(C)(=O)=O | 1.4% |
| CN(C)c1ccc(/C=C/C(=O)c2c(-c3ccccc3)c3cc(Cl)ccc3[nH]c2=O)cc1 | 11.2% |
| O=C(NCCc1cccc(Cl)c1)c1cccc([N+](=O)[O-])c1 | 14.1% |
